# PubChem BioAssay (NCI)
# Some compounds were tested as several samples or in several runs, with calls that do not always agree.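 Each cell line was grown in a 96-well plate and treated with one concentration of compound for 48 hours. Values below 10 were considered active.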 Not every entry of the source has a single result; some have several. This list holds those alone. There may be further records. This drug was run again and again over the years, at its own concentration, as given; each value is one run. Counts like (3×) give the number of equal values in this list.
# System: NCI-H522 lung
# Assay: NCI-60 one-dose screen, 48 h (100 = growth as untreated, 0 = no growth, -100 = all killed)
smiles,measurement,setting,value
COc1cccc2c1C(=O)c1c(O)c3c(c(O)c1C2=O)C[C@@](O)(C(=O)CO)C[C@@H]3OC1CC(N)C(O)C(C)O1 (stereo not given in full),growth,"0.25 µM, runs of 2009","inactive: 22.3, 18.3, 41.2, 54.4, 70.6, 49.7, 65.1, 23.6, 30, 30.8, 71.2, 16.8, 20.7, 10.9 (2×), 12.2, 24.2, 25.1, 35, 11.5, 26.1, 11.9, 24.7 (2×), 47.4, 10.2, 15.3, 25.6, 14.7, 33.2, 39.1, 13.8, 13.9, 13.3, 17.4 (2×), 16.2% and active: -26.8, -12.1, 7.72 (2×), 5.79, -7.04, 8.1, -27, 1.11, -3.26, 6.34, -19.9, 7.53, 4.44, -5.92, 9.33, 1.25, -15.5, -3.43, -14, -13.9, -10.9, -28.2, -13.1, -33.1, -20.9, -15.7, -33.6, 6.53, 0.844, -1.45, 8.28%"
same,growth,"0.25 µM, runs of 2010","inactive: 29.7, 21.9, 45, 15.5, 22, 10.6, 22.7, 27.8, 15.3, 14.6, 16.4, 12.2, 12.9, 11.5, 29.4, 19.2, 19, 25.6, 38.2, 16.1, 13.3, 24.5, 22.5% and active: -5.11, 1.51, 0.0934, 1.72, -3.21, -3.39, 2.55, -4.98, -30.9, -26.8, -9.72, -8.95, 6.68, -6.88, -2.53, 6.93, 3.92, 1.32, 8.45, -8.96, 5.5, -5.31%"
same,growth,"0.25 µM, runs of 2011","inactive: 25.7, 14.6, 17.5, 22, 23.1, 34.4, 22.3, 45.6, 38.7, 42.3, 38, 37.3, 17.2, 22.9, 14.7, 19.2, 30.3, 11.8 (2×), 29, 28.5, 15, 33.9, 19.1, 17.3, 23, 20.6, 20.5, 27, 18.8, 32, 11.6, 13.4, 21.7% and active: 4.19, 7.83, 1.91, -5.93, -4.11, 8.34, -45.2, 6.43, 8.15, 3.24, -10.3, 9.38, 8.96, -1.24, -4.63, 7.69, 4.5, 4.38, 5.58, -1.72%"
same,growth,"0.25 µM, runs of 2012","inactive: 27.7, 22.9, 12.2, 22.3, 27.8, 29.7, 14.1, 15.8, 16.6, 15.3, 34.1, 35.6, 11.8, 35.5, 27.2, 16.3, 29 (2×), 30.3, 19.3, 15.2, 51.8, 37.9, 41.2, 46.5, 16, 28.5, 63.9, 42.9, 38, 18.8, 27.9, 10, 21.7, 18.3, 20.9, 31.8, 23.2, 10.7, 21.2, 16.7, 29.2, 61.6% and active: 4.37, 5.12, 1.13, 4.71, 2.72, 8.49, 0.406, 3.04, -3.83, 9.38, -6.39, -15.1, -2.69, 5.84, 4.63, 1.4, 5.18, 1.76, 2.31, 0.368, 9.18, 6.17, 8.64, -21.6%"
same,growth,"0.25 µM, runs of 2013","active: 4.75, 1.67, 5.68, 7.97, 2.53, 3.3, 6.31% and inactive: 57.6, 43.6, 22.7, 28.1, 18.2, 35.9, 16.8, 37.4, 16.4 (3×), 26.2, 25.8 (2×), 10.4, 22.4, 38.2, 22.8, 69, 40.8, 44.7 (2×), 71.3, 34.1, 28.5, 38.1, 33.2 (2×), 74.9, 71.9, 38.4, 46.1, 21.1, 22.9, 25.7, 21.2, 29.4, 17, 26.5, 20, 24.2, 36.1, 15.3, 57.2, 51.2, 49.8, 50.8, 39.4, 29.8, 30.9, 21, 13.3, 16.7 (2×), 19.2, 20.5, 23.5, 21.8, 26, 19%"
same,growth,"0.25 µM, runs of 2014","inactive: 26.1, 21.3, 19.8, 14.8, 26.8, 11.2, 11.3, 19.7, 18 (2×), 26.5, 19.2, 45.8, 32.2, 39.7 (2×), 49, 28.7, 35.9 (2×), 33.4, 32.7, 15.4, 22.5, 24.2, 14.6, 13.6 (2×), 13 (2×), 11.4, 19.6, 40, 38.7, 21.7, 23.7 (2×), 34.9, 28.1, 32.3, 29.4, 23.8, 21.5, 26.7, 14.4, 17.5, 23.2, 29.1, 23.9, 28, 12, 13.8, 16 (2×), 16.7, 16.6, 24.4, 17.6, 20.1, 21.4, 17.7, 18.2, 20.3, 10.5% and active: 8.55, 9.5, 9.61, 8.94, 3.47, 3.79, 1.21, 2.2, -0.758, 8.09, 5.57, 9.57, 8.68, 8.81, 4.95%"
same,growth,"0.25 µM, runs of 2015","inactive: 22.1, 16.5, 19.5, 24.2, 18.2, 34, 38.8, 35.3, 38.5, 38.4, 37.1, 20.7 (2×), 13.6 (2×), 16, 30.7, 30, 21.5 (2×), 32.6, 23.7, 28.2 (2×), 33.6, 35.1, 37.7, 26.2, 14, 15.7, 17.7, 15.5, 13, 17.5, 13.8, 15.8, 14.1, 22.8, 21.9, 11.1, 29.1, 25.4, 23.5, 31.1, 13.5, 30.8, 24.4, 24.9, 21.1, 27.4, 27.9, 12.9, 19.3, 27.7% and active: 1.61, 8.88, 3.85, 0.749, 7.06, 1.32, 7.12, 5.31, 7.51, 2.81, 5.4, 6.82, 6.44, 5.74, -11.9, 9.31, 8.82, -1.67, 1.3, 5.44, 7.54, 2.48, -11.2, 5.39, 2.99, 7.01, 8.33, 2.19, 7.19, 1.97, 5.92, -2.75%"
same,growth,"0.25 µM, runs of 2016","inactive: 25.5, 23.2, 27.9, 34.7, 16.8, 19.5, 20.7, 14.2, 15.3, 28.1, 22.6, 14.4, 15.4, 15.7, 27.1, 22.7, 22.5 (2×), 37.2, 37.1, 25.3, 26.7, 31.3, 31.7, 16.1, 14.7, 16, 13.5, 18.4, 15.1, 21, 17.9, 13.8, 20.6, 24.8 (2×), 26.5, 32.1, 22.3, 41.5, 19.7, 43.2, 41, 42.6, 34.1, 29.2, 35.4, 32.4, 40.5, 44.8, 30.3, 20.3, 23 (2×), 17.2, 24.6, 29.7, 19.9, 15, 13.9, 25.6 (2×), 31.9, 38.2, 28.2, 31, 34.6, 36.1, 26% and active: 9.16, 1.21, -5.05, -9.1, -1.93, 1.62, 0.327, 4.52, -8.83, 8.28, 9.83%"
same,growth,"0.25 µM, runs of 2017","inactive: 32.1, 30.7, 34.6, 17.2, 12.4, 17.6 (2×), 22 (2×), 13.8, 13.3, 13.9 (2×), 16.1, 15, 11.8, 11.2, 11.7, 24.3, 25.1, 17.3, 20.3, 13.1, 18.8, 33, 24.4, 26.8, 33.3, 27.3, 20.4, 25.3 (2×), 25.5, 27.4, 10.4, 15.3, 19.8, 14.6, 11.5, 18.1 (2×), 23.3, 27.7, 32.2, 10.5 (3×), 18.6, 23.5 (2×), 23.1, 25.6, 25.8 (2×), 31.1, 30.4, 19.7, 11.3, 10.1, 15.1, 10.8, 13.2, 10.6, 21, 14.2, 19.4, 24.9, 21.5% and active: 8.85, 9.93, 4.06, 9.24 (2×), 7.09, 9.8, 9.84, 4.89, 6.52, 4.18, 6.84, 8.91%"
same,growth,"0.25 µM, runs of 2018","inactive: 20.5, 18.9, 14.7, 10.8, 27.9, 27.6, 10.6 (2×), 12, 10.2, 22.4 (2×), 15.6, 22.8, 27.8, 28, 22.2, 15.5, 14, 14.1, 37.9, 26.1, 32.1, 23.4, 23.7, 18.3, 13.2 (2×), 19.9, 20, 17.6, 16.1, 19.6, 13.5, 15, 17.3, 20.8, 11.4, 11, 25.5% and active: 9.26, 8.01, 8.06, 8.58, 9.51, 5.72, -9.39, 6.03, 4.23, 8.02, 2.63, 6.15%"
same,growth,"0.25 µM, runs of 2019","inactive: 27.9, 17.5, 28.1, 17.3 (2×), 11.7 (2×), 14.8, 22.9, 16.8 (2×), 19.4 (2×), 19.8, 29.2, 24.4, 21.8, 17.4 (2×), 26.1, 24.6, 18.4, 25.8 (2×), 11.3, 10.5, 23.8, 26.8, 31.9, 27.1, 27.7, 19, 27, 23.2, 31.8, 30.7, 23, 15.1, 18.3, 12.4, 24.3, 38.1, 13.3, 24.7% and active: 1.27, 4.01, 9.25, 5.36, 6.81%"
same,growth,"0.25 µM, runs of 2020","inactive: 26.6, 32, 37.2, 35.8, 30.3, 11.5, 11.1, 21.4, 28.5, 24.7, 21.9, 15.2, 11.7, 20.3, 17.7, 30.7, 23.6, 34.7, 50.2, 33.3, 35.2, 37.9, 35.6, 44.2, 45.9, 26.4%"
same,growth,"0.25 µM, runs of 2021","inactive: 32.4, 40.8, 50.5, 38.3 (3×), 24.6 (2×), 31.5, 32, 13.1, 19.6, 16.1, 27, 12.9, 23.1, 23.5 (2×), 38 (2×), 28.1, 42.2, 29.9, 31.7, 31.2, 19.9, 51.3, 10.1, 13.9, 24.9, 21, 12.6, 29.2, 27.8, 46, 50.3, 17.2, 19.4, 10.5% and active: 5.91, 9.04, 9.59, 8.8, -10.4, -2.25, -2.05, -0.977, -2.57, 1.6%"
same,growth,"0.25 µM, runs of 2022","active: -50.6, -40.5, -46.8, 0.965, -6.22, 6.02, 6.33, -8.91, 2.92, -3.09% and inactive: 29.8, 14.4 (2×), 13.2, 27.7, 16.2, 13.1, 13.3, 45.1, 65.8, 70.1, 46, 83.9, 38.1, 37.4, 34.7, 26.1%"
same,growth,"25 µM, runs of 1991","active: -82.9, -68.1, -78.2, -87.5, -90, -89.4, -75.4, -92.9, -93.8, -64, -80.1, -81.5, -88.9, -95, -98.8, -94.7, -87.9, -95.1, -74.6%"
